Experimental data: PubChem BioAssay (NCI)
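Cells were grown in 96-well plates and exposed to each compound for 48 hours at five concentrations; endpoints were interpolated linearly between bracketing concentrations, or set to the highest concentration if not reached. GI50: concentration for 50% inhibition of growth.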 A number of entries come with more than one value. This list holds those alone. The source may hold further records. For some assays here: A record mostly stands for its own series of concentrations, which the source does not state; some values may only mark the edge of a range. A tag in brackets gives the origin of a value. Letters count within one entry. For some assays here: The values listed for one entry are repeats across runs, samples, wells, individuals or studies.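 TGI marks complete inhibition of growth.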

Assays:
Test in all cases: NCI tumour cell line growth inhibition, 48 h
SK-MEL-2 melanoma = test system: SK-MEL-2 melanoma
OVCAR-5 ovarian = test system: OVCAR-5 ovarian
SF-539 CNS = test system: SF-539 CNS
P388/ADR leukemia = test system: P388/ADR leukemia
MDA-N = test system: MDA-N
UACC-62 melanoma = test system: UACC-62 melanoma
LOX IMVI melanoma = test system: LOX IMVI melanoma
COLO 205 colon = test system: COLO 205 colon
CCRF-CEM leukemia = test system: CCRF-CEM leukemia
XF 498 CNS = test system: XF 498 CNS
HCT-15 colon = test system: HCT-15 colon
OVCAR-3 ovarian = test system: OVCAR-3 ovarian
PC-3 prostate = test system: PC-3 prostate
HL-60(TB) leukemia = test system: HL-60(TB) leukemia
RPMI-8226 leukemia = test system: RPMI-8226 leukemia
HS 578T breast = test system: HS 578T breast
RXF 393 renal = test system: RXF 393 renal
SN12K1 renal = test system: SN12K1 renal
A498 renal = test system: A498 renal
NCI/ADR-RES ovarian = test system: NCI/ADR-RES ovarian
P388 leukemia = test system: P388 leukemia
MCF7 breast = test system: MCF7 breast
ACHN renal = test system: ACHN renal
SK-OV-3 ovarian = test system: SK-OV-3 ovarian
HCT-116 colon = test system: HCT-116 colon
TK-10 renal = test system: TK-10 renal
MALME-3M melanoma = test system: MALME-3M melanoma
MOLT-4 leukemia = test system: MOLT-4 leukemia
OVCAR-8 ovarian = test system: OVCAR-8 ovarian
NCI-H460 lung = test system: NCI-H460 lung
A549 NSCLC = test system: A549 NSCLC
NCI-H522 lung = test system: NCI-H522 lung
HOP-92 NSCLC = test system: HOP-92 NSCLC
SK-MEL-5 melanoma = test system: SK-MEL-5 melanoma
MDA-MB-435 = test system: MDA-MB-435
DMS 273 small cell lung = test system: DMS 273 small cell lung
CAKI-1 renal = test system: CAKI-1 renal
SR leukemia = test system: SR leukemia
DU-145 prostate = test system: DU-145 prostate
UACC-257 melanoma = test system: UACC-257 melanoma
UO-31 renal = test system: UO-31 renal
DMS 114 small cell lung = test system: DMS 114 small cell lung
OVCAR-4 ovarian = test system: OVCAR-4 ovarian
EKVX NSCLC = test system: EKVX NSCLC
MDA-MB-231 breast = test system: MDA-MB-231 breast
NCI-H23 lung = test system: NCI-H23 lung
HCC-2998 colon = test system: HCC-2998 colon
HOP-62 NSCLC = test system: HOP-62 NSCLC
M14 melanoma = test system: M14 melanoma

Nc1nc(=S)c2ncn(C3CC(O)C(CO)O3)c2[nH]1 (centres undefined)
TGI (SK-MEL-2 melanoma): 15.4 µM [sample A, mean of 9 tests] and 1.54 mM [sample B, mean of 9 tests] | TGI (OVCAR-5 ovarian): 432 µM [sample A, mean of 10 tests] and > 4.76 mM [sample B, mean of 9 tests] | TGI (SF-539 CNS): 275 µM [sample A, mean of 10 tests] and 3.25 mM [sample B, mean of 8 tests] | GI50 (P388/ADR leukemia): 274 nM [sample A, mean of 4 tests] and 74.1 µM [sample B, mean of 5 tests] | TGI (P388/ADR leukemia): 268 µM [sample A, mean of 4 tests] and > 5 mM [sample B, mean of 5 tests] | TGI (MDA-N): 62.4 µM [sample A, mean of 3 tests] and 3.54 mM [sample B, mean of 4 tests] | GI50 (UACC-62 melanoma): 314 nM [sample A, mean of 10 tests] and 58.7 µM [sample B, mean of 10 tests] | TGI (UACC-62 melanoma): 8.59 µM [sample A, mean of 10 tests] and 792 µM [sample B, mean of 10 tests] | GI50 (LOX IMVI melanoma): 262 nM [sample A, mean of 8 tests] and 16.1 µM [sample B, mean of 10 tests] | TGI (LOX IMVI melanoma): 9.7 µM [sample A, mean of 8 tests] and 1.76 mM [sample B, mean of 10 tests] | TGI (COLO 205 colon): 8.02 µM [sample A, mean of 8 tests] and 583 µM [sample B, mean of 8 tests] | GI50 (CCRF-CEM leukemia): 262 nM [sample A, mean of 9 tests] and 25.3 µM [sample B, mean of 8 tests] | TGI (CCRF-CEM leukemia): 25.1 µM [sample A, mean of 9 tests] and 3.92 mM [sample B, mean of 8 tests] | TGI (XF 498 CNS): 3.9 µM [sample A, mean of 4 tests] and 278 µM [sample B, mean of 5 tests] | TGI (HCT-15 colon): 99.2 µM [sample A, mean of 7 tests] and 1.63 mM [sample B, mean of 10 tests] | TGI (OVCAR-3 ovarian): 21.7 µM [sample A, mean of 9 tests] and 684 µM [sample B, mean of 8 tests] | TGI (PC-3 prostate): 127 µM [sample A, mean of 4 tests] and > 3.9 mM [sample B, mean of 4 tests] | TGI (HL-60(TB) leukemia): 26 µM [sample A, mean of 9 tests] and 1.34 mM [sample B, mean of 7 tests] | TGI (RPMI-8226 leukemia): 19.3 µM [sample A, mean of 10 tests] and 1.46 mM [sample B, mean of 9 tests] | TGI (HS 578T breast): 270 µM [sample A, mean of 4 tests] and 3.27 mM [sample B, mean of 4 tests] | TGI (RXF 393 renal): 21.6 µM [sample A, mean of 9 tests] and 3.05 mM [sample B, mean of 9 tests] | GI50 (SN12K1 renal): 422 nM [sample A, mean of 6 tests] and 45.9 µM [sample B, mean of 5 tests] | TGI (SN12K1 renal): 17 µM [sample A, mean of 6 tests] and 1.94 mM [sample B, mean of 5 tests] | TGI (A498 renal): 51.4 µM [sample A, mean of 11 tests] and 1.63 mM [sample B, mean of 10 tests] | TGI (NCI/ADR-RES ovarian): 111 µM [sample A, mean of 10 tests] and 2.06 mM [sample B, mean of 9 tests] | GI50 (P388 leukemia): 324 nM [sample A, mean of 7 tests] and 29 µM [sample B, mean of 5 tests] | TGI (P388 leukemia): 27.6 µM [sample A, mean of 7 tests] and > 3.8 mM [sample B, mean of 5 tests] | TGI (MCF7 breast): 142 µM [sample A, mean of 7 tests] and 2.4 mM [sample B, mean of 8 tests] | TGI (ACHN renal): 128 µM [sample A, mean of 3 tests] and 1.34 mM [sample B, mean of 4 tests] | TGI (SK-OV-3 ovarian): 31.5 µM [sample A, mean of 11 tests] and 1.03 mM [sample B, mean of 9 tests] | TGI (HCT-116 colon): 127 µM [sample A, mean of 10 tests] and 3.28 mM [sample B, mean of 9 tests] | TGI (TK-10 renal): 16 µM [sample A, mean of 3 tests] and 799 µM [sample B, mean of 4 tests] | TGI (MALME-3M melanoma): 80.4 µM [sample A, mean of 9 tests] and 2.31 mM [sample B, mean of 9 tests] | TGI (MOLT-4 leukemia): 26.8 µM [sample A, mean of 11 tests] and 2 mM [sample B, mean of 9 tests] | TGI (OVCAR-8 ovarian): 116 µM [sample A, mean of 11 tests] and 1.42 mM [sample B, mean of 10 tests] | TGI (NCI-H460 lung): 12.9 µM [sample A, mean of 9 tests] and 790 µM [sample B, mean of 9 tests] | TGI (A549 NSCLC): 121 µM [sample A, mean of 10 tests] and 2.41 mM [sample B, mean of 10 tests] | TGI (NCI-H522 lung): 20.4 µM [sample A, mean of 7 tests] and 1.27 mM [sample B, mean of 8 tests] | TGI (HOP-92 NSCLC): 61.8 µM [sample A, mean of 7 tests] and 2.39 mM [sample B, mean of 7 tests] | TGI (SK-MEL-5 melanoma): 10.8 µM [sample A, mean of 9 tests] and 1.25 mM [sample B, mean of 9 tests] | TGI (MDA-MB-435): 26.7 µM [sample A, mean of 4 tests] and 1.49 mM [sample B, mean of 4 tests] | GI50 (DMS 273 small cell lung): 384 nM [sample A, mean of 4 tests] and 38.8 µM [sample B, mean of 5 tests] | TGI (DMS 273 small cell lung): 21 µM [sample A, mean of 4 tests] and 400 µM [sample B, mean of 5 tests] | TGI (CAKI-1 renal): 15.5 µM [sample A, mean of 9 tests] and 3.3 mM [sample B, mean of 8 tests] | GI50 (SR leukemia): 206 nM [sample A, mean of 3 tests] and 95.5 µM [sample B, 1 test] and 36.5 µM [sample B, mean of 2 tests] | TGI (SR leukemia): 5.62 µM [sample A, mean of 3 tests] and > 5 mM [sample B, mean of 2 tests] | GI50 (DU-145 prostate): 334 nM [sample A, mean of 3 tests] and 70.8 µM [sample B, mean of 3 tests] | TGI (DU-145 prostate): 272 µM [sample A, mean of 3 tests] and > 4.28 mM [sample B, mean of 3 tests] | TGI (UACC-257 melanoma): 355 µM [sample A, mean of 8 tests] and > 3.75 mM [sample B, mean of 8 tests] | TGI (UO-31 renal): 152 µM [sample A, mean of 10 tests] and 3.91 mM [sample B, mean of 9 tests] | TGI (DMS 114 small cell lung): 227 µM [sample A, mean of 5 tests] and 2.79 mM [sample B, mean of 5 tests] | TGI (OVCAR-4 ovarian): 99.2 µM [sample A, mean of 10 tests] and 1.66 mM [sample B, mean of 9 tests] | TGI (EKVX NSCLC): 118 µM [sample A, mean of 9 tests] and 1.32 mM [sample B, mean of 9 tests] | TGI (MDA-MB-231 breast): 187 µM [sample A, mean of 4 tests] and 2.52 mM [sample B, mean of 4 tests] | TGI (NCI-H23 lung): 129 µM [sample A, mean of 9 tests] and 2.6 mM [sample B, mean of 7 tests] | TGI (HCC-2998 colon): 44.3 µM [sample A, mean of 6 tests] and 1.06 mM [sample B, mean of 7 tests] | TGI (HOP-62 NSCLC): 66.7 µM [sample A, mean of 9 tests] and 3.06 mM [sample B, mean of 10 tests] | GI50 (M14 melanoma): 312 nM [sample A, mean of 4 tests] and 67.6 µM [sample B, mean of 4 tests] | TGI (M14 melanoma): 20.2 µM [sample A, mean of 4 tests] and 2.5 mM [sample B, mean of 4 tests]
